Data reported in the supplement of paper PMC11741623.
Some of the results follow. Interaction screen of human proteins with wild-type SARS-CoV-2 proteins by split-DHFR complementation in yeast, 1 µg/mL methotrexate. Value = fitness of the pair (three or more lineages) minus that of the viral protein without a human partner, on a scale set by negative (0) and fused positive (1) controls, mean of up to three cultures; higher = more likely to interact. Active = false discovery rate below 0.05 (one-sided t-test) in at least one culture. Nearly all pairs are not hits, and differences among them are mostly noise (correlation between cultures about 0.3); most hits were seen in one culture only. Human sequences are the Swiss-Prot entries looked up by gene name; the clone may be another isoform. NSP2 values were corrected by the authors for a growth advantage. Listed are human proteins with a hit and a random twelfth of the others.

Columns and labels:
Test in all cases: yeast fitness gain over the viral ORF with no human partner (scaled fitness); higher = more likely to interact
SARS-CoV-2 M = target: SARS-CoV-2 M
Method: (§1)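 Split mouse DHFR complementation in pooled diploid yeast: human ORFeome clones carry one fragment and viral ORFs the other; barcoded lineages compete in 1 µg/mL methotrexate and fitness is read by barcode sequencing in up to three cultures.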

SARS-CoV-2 NSP10 = target: SARS-CoV-2 NSP10
Method: as §1

SARS-CoV-2 NSP12 = target: SARS-CoV-2 NSP12
Method: as §1

SARS-CoV-2 NSP13 = target: SARS-CoV-2 NSP13
Method: as §1

SARS-CoV-2 NSP16 = target: SARS-CoV-2 NSP16
Method: as §1

SARS-CoV-2 NSP2 = target: SARS-CoV-2 NSP2
Method: as §1

SARS-CoV-2 NSP5 = target: SARS-CoV-2 NSP5
Method: as §1

SARS-CoV-2 NSP6 = target: SARS-CoV-2 NSP6
Method: as §1

SARS-CoV-2 NSP7 = target: SARS-CoV-2 NSP7
Method: as §1

SARS-CoV-2 NSP8 = target: SARS-CoV-2 NSP8
Method: as §1

SARS-CoV-2 ORF10 = target: SARS-CoV-2 ORF10
Method: as §1

SARS-CoV-2 ORF3B = target: SARS-CoV-2 ORF3B
Method: as §1

SARS-CoV-2 ORF6 = target: SARS-CoV-2 ORF6
Method: as §1

SARS-CoV-2 ORF7A = target: SARS-CoV-2 ORF7A
Method: as §1

SARS-CoV-2 ORF7B = target: SARS-CoV-2 ORF7B
Method: as §1

SARS-CoV-2 ORF8 = target: SARS-CoV-2 ORF8
Method: as §1

SARS-CoV-2 ORF9B = target: SARS-CoV-2 ORF9B
Method: as §1

[1] = target: SARS-CoV-2 ORF9Bwu (the 73-codon ORF)
Method: as §1

SARS-CoV-2 S = target: SARS-CoV-2 S
Method: as §1

SARS-CoV-2 N = target: SARS-CoV-2 N
Method: as §1

SARS-CoV-2 NSP1 = target: SARS-CoV-2 NSP1
Method: as §1

SARS-CoV-2 NSP9 = target: SARS-CoV-2 NSP9
Method: as §1

SARS-CoV-2 ORF3A = target: SARS-CoV-2 ORF3A
Method: as §1

SARS-CoV-2 NSP15 = target: SARS-CoV-2 NSP15
Method: as §1

Measured: yeast fitness gain

B1: TPPP2, P59282 (protein)
chain: MASEAEKTFHRFAAFGESSSSGTEMNNKNFSKLCKDCGIMDGKTVTSTDVDIVFSKVKAKNARTITFQQFKEAVKELGQKRFKGKSPDEVLENIYGLMEGKDPATTGATKATTVGAVDRLTDTSKYTGTHKERFDESGKGKGIAGREEMTDNTGYVSGYKGSGTYDKKTK
inactive: SARS-CoV-2 M 0.0202 | SARS-CoV-2 NSP10 = 0.108 | SARS-CoV-2 NSP12 = 0.0487 | SARS-CoV-2 NSP13 = -0.00969 | SARS-CoV-2 NSP16 = -0.058 | SARS-CoV-2 NSP5 = -0.109 | SARS-CoV-2 NSP6 = 0.0692 | SARS-CoV-2 NSP7 = -0.0462 | SARS-CoV-2 NSP8 = -0.0596 | SARS-CoV-2 ORF10 = -0.0165 | SARS-CoV-2 ORF3B 0.0546 | SARS-CoV-2 ORF6 = 0.1 | SARS-CoV-2 ORF7A 0.0875 | SARS-CoV-2 ORF7B -0.117 | SARS-CoV-2 ORF8 = -0.0115 | SARS-CoV-2 ORF9B -0.019 | [1] -0.0204 | SARS-CoV-2 S -0.0124
active: SARS-CoV-2 NSP2 = 0.392

B2: CCDC96, Q2M329 (protein)
chain: MDVSSEHTKDPGGEGGDGESLAARPSKIKASSGPPTSPEPGELESEPEEEEEEQAASQGGTAADEQAEAPKGLTAAEAAGEEGPGEPGRPAEPQPEPEEPAEVGAEEPAQPEPGAGPEELEAEAGAEELEQAAEGKEVRFQASLPLTRIDEEEAAAAPEAETERVEGEEEDKEETQRDGAESKERDGEGRPAKSQEEGKRLYGRDEFEDLEWSEEVQKLQEQQLRSDLLDQYRSLLVERNRSQRYNLYLQHKIFEALRRKKGLEAAEVADRGAEAEAPEKEQAYLRHLGMLEELKKQQADDLQWYHQELGQLKRQCQEKLTRVEKEWRRFQALKKQVVMQAMGSCRMRGGRQAALREVEQIQALEDKKEKEMSAVRLENIQLKQSLVHFETRMRTQEDLTQGLLLIDFEQLKIENQTFNEKIEERNEELLKLRSKVTNSVQVITHVKEKLHFMDMENACKKTQLAEIEAQAALGRDILTKTKQAREGLRTDNIRLNQKCGLLGKDSLLRDLEEKVDKTELLHRRLESLKRHHASLTLSCRGVRQKIREAKAFLPS
inactive: SARS-CoV-2 M 0.0279 | SARS-CoV-2 N 0.0624 | SARS-CoV-2 NSP1 = -0.0934 | SARS-CoV-2 NSP10 = 0.0238 | SARS-CoV-2 NSP7 = 0.00443 | SARS-CoV-2 NSP8 = -0.0699 | SARS-CoV-2 NSP9 = -0.0107 | SARS-CoV-2 ORF3A -0.0504 | SARS-CoV-2 ORF3B 0.0194 | [1] -0.032

B3: TRIM39, Q9HCM9 (protein)
chain: MAETSLLEAGASAASTAAALENLQVEASCSVCLEYLKEPVIIECGHNFCKACITRWWEDLERDFPCPVCRKTSRYRSLRPNRQLGSMVEIAKQLQAVKRKIRDESLCPQHHEALSLFCYEDQEAVCLICAISHTHRAHTVVPLDDATQEYKEKLQKCLEPLEQKLQEITRCKSSEEKKPGELKRLVESRRQQILREFEELHRRLDEEQQVLLSRLEEEEQDILQRLRENAAHLGDKRRDLAHLAAEVEGKCLQSGFEMLKDVKSTLEKNIPRKFGGSLSTICPRDHKALLGLVKEINRCEKVKTMEVTSVSIELEKNFSNFPRQYFALRKILKQLIADVTLDPETAHPNLVLSEDRKSVKFVETRLRDLPDTPRRFTFYPCVLATEGFTSGRHYWEVEVGDKTHWAVGVCRDSVSRKGELTPLPETGYWRVRLWNGDKYAATTTPFTPLHIKVKPKRVGIFLDYEAGTLSFYNVTDRSHIYTFTDTFTEKLWPLFYPGIRAGRKNAAPLTIRPPTDWE
inactive: SARS-CoV-2 M -0.00245 | SARS-CoV-2 NSP15 = 0.0118 | SARS-CoV-2 NSP16 = -0.0748 | SARS-CoV-2 NSP7 = -0.131 | SARS-CoV-2 NSP8 = -0.0144 | SARS-CoV-2 ORF3A -0.17 | SARS-CoV-2 ORF7A -0.0618 | [1] -0.00321

B4: GJB7, Q6PEY0 (protein)
chain: MSWMFLRDLLSGVNKYSTGTGWIWLAVVFVFRLLVYMVAAEHVWKDEQKEFECNSRQPGCKNVCFDDFFPISQVRLWALQLIMVSTPSLLVVLHVAYHEGREKRHRKKLYVSPGTMDGGLWYAYLISLIVKTGFEIGFLVLFYKLYDGFSVPYLIKCDLKPCPNTVDCFISKPTEKTIFILFLVITSCLCIVLNFIELSFLVLKCFIKCCLQKYLKKPQVLSV
inactive: SARS-CoV-2 M 0.037 | SARS-CoV-2 NSP10 = -0.0355 | SARS-CoV-2 NSP12 = -0.126 | SARS-CoV-2 NSP13 = -0.169 | SARS-CoV-2 NSP15 = -0.019 | SARS-CoV-2 NSP2 = -0.259 | SARS-CoV-2 NSP5 = 0.0412 | SARS-CoV-2 NSP6 = -0.115 | SARS-CoV-2 NSP7 = 0.0526 | SARS-CoV-2 NSP8 = 0.013 | SARS-CoV-2 ORF10 = -0.00305 | SARS-CoV-2 ORF3B -0.11 | SARS-CoV-2 ORF6 = -0.129 | SARS-CoV-2 ORF7A 0.296 | SARS-CoV-2 ORF7B 0.193 | SARS-CoV-2 ORF8 = 0.00109 | SARS-CoV-2 ORF9B -0.0544 | SARS-CoV-2 S 0.0363

B5: SPIN2B, Q9BPZ2 (protein)
chain: MKTPNAQEAEGQQTRAAAGRATGSANMTKKKVSQKKQRGRPSSQPRRNIVGCRISHGWKEGDEPITQWKGTVLDQVPINPSLYLVKYDGIDCVYGLELHRDERVLSLKILSDRVASSHISDANLANTIIGKAVEHMFEGEHGSKDEWRGMVLAQAPIMKAWFYITYEKDPVLYMYQLLDDYKEGDLRIMPESSESPPTEREPGGVVDGLIGKHVEYTKEDGSKRIGMVIHQVEAKPSVYFIKFDDDFHIYVYDLVKKS
inactive: SARS-CoV-2 M -0.0331 | SARS-CoV-2 NSP12 = 0.0767 | SARS-CoV-2 NSP13 = -0.0429 | SARS-CoV-2 NSP16 = -0.0561 | SARS-CoV-2 ORF6 = -0.141 | SARS-CoV-2 ORF9B 0.0836

B6: S100A13, Q99584 (protein)
chain: MAAEPLTELEESIETVVTTFFTFARQEGRKDSLSVNEFKELVTQQLPHLLKDVGSLDEKMKSLDVNQDSELKFNEYWRLIGELAKEIRKKKDLKIRKK
inactive: SARS-CoV-2 M -0.0219 | SARS-CoV-2 N -0.081 | SARS-CoV-2 NSP10 = -0.0072 | SARS-CoV-2 NSP12 = -0.236 | SARS-CoV-2 NSP13 = -0.0303 | SARS-CoV-2 NSP16 = 0.0592 | SARS-CoV-2 NSP2 = 0.0393 | SARS-CoV-2 NSP5 = -0.0501 | SARS-CoV-2 NSP7 = -0.123 | SARS-CoV-2 NSP8 = -0.0401 | SARS-CoV-2 ORF10 = 0.0138 | SARS-CoV-2 ORF3B 0.0808 | SARS-CoV-2 ORF6 = -0.0193 | SARS-CoV-2 ORF7A 0.0202 | SARS-CoV-2 ORF7B 0.102 | SARS-CoV-2 ORF8 = -0.0397 | SARS-CoV-2 ORF9B -0.0795 | [1] 0.0627 | SARS-CoV-2 S -0.0758
